This assay relates to MDA-MB-468 breast. Nature of the assay: NCI anticancer screen, dose series, 48 h.

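Cells were grown in 96-well plates and exposed to each compound for 48 hours at five concentrations; endpoints were interpolated linearly between bracketing concentrations, or set to the highest concentration if not reached. TGI marks complete inhibition of growth.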 A number of entries come with more than one value. The other results are left out here. An entry can have further records. Records of one sample usually come from different ranges of test concentrations, not given here; some values may only mark the edge of a range.

Experimental findings from PubChem BioAssay (NCI) are described below.

For `CN[C@H]1C=C[C@@H]2/C=C(C)/C=C/[C@@H](C)[C@H]([C@H](C)[C@H](O)[C@@H](C)NC(C)=O)OC(=O)/C=C/C=C(C)\C=C\[C@]2(C)C1`, the TGI was 148 nM and > 49 µM.
